Experimental data: PubChem BioAssay (NCATS)
Inconclusive means that the source gave no clear call. Such entries were picked first, then a sample of the others. Potencies of inconclusive entries are left out as doubtful fits. A structure can be active in one record and inactive in another. Activity calls are given as the source filed them. The call rests on the fitted dose curve; in most records, active means well fitted curve in the direction sought with a large enough effect; inconclusive means small, poorly fitted or top-dose-only effect, or another doubt; inactive means no such curve, though single readings can be large; an effect the other way counts as inactive or inconclusive.

Tests used:
[1] = NS1 protein of Zika virus - qHTS assay to identify small molecule inhibitors in human HEK 293 cells (AID 1347053); further: nearly all actives have a fitted effect of over 55% in size;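 on activity change, negative = inhibition: plate controls were infected untreated cells for no effect and uninfected cells for full effect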
Summary of the method: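 HEK 293 cells pretreated with compound for 1 h, then infected with ZIKV MR766 (MOI 0.5) for 24 h at 37 C. NS1 detected by TR-FRET with two anti-NS1 antibodies; normalized to uninfected (0%) and infected (100%) wells.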

[2] = qHTS of pediatric cancer cell lines to identify multiple opportunities for drug repurposing: Primary screen for TC32 cells (AID 1347089); further: nearly all actives have a fitted effect of over 60% in size; on activity change, negative = cytotoxic: on the % scale 0 is the no-effect control and ±100 the full control effect
Summary of the method: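 TC32 cells, 500-1,000/well in growth medium, compound-treated 48 h at 37 °C; viability from CellTiter-Glo luminescence. Primary screen: MIPE 11-point (0.78 nM–46 µM final), NPC 8-point (0.59 nM–46 µM final); confirmatory at 11-point dilutions.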

[3] = qHTS of pediatric cancer cell lines to identify multiple opportunities for drug repurposing: Primary screen for DAOY cells (AID 1347090); settings: DAOY medulloblastoma viability, CellTiter-Glo luminescence, 48 h; activity change, negative = cytotoxic: at 46 µM (top of the series) unless noted; further: nearly all actives have a fitted effect of over 55% in size
Summary of the method: (§1)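 Eight- or eleven-point concentration series, 48 h treatment at 37 degrees C in growth media; readout CellTiter-Glo luminescence. Potency and efficacy were taken from the concentration-response curves.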

[4] = qHTS of pediatric cancer cell lines to identify multiple opportunities for drug repurposing: Primary screen for SJ-GBM2 cells (AID 1347091);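 on activity change, negative = cytotoxic: plate controls were DMSO neutral control for no effect and bortezomib for full effect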
Summary of the method: as §1
Potency means the concentration at half of the fitted maximal effect; tags describe the fitted curve by direction and shape.

## CO[C@H]1C=CC=C(C)C(=O)NC2=CC(=O)C(NCCN(C)C)=C(C[C@@H](C)C[C@H](OC)[C@@H](O)[C@@H](C)C=C(C)[C@@H]1OC(N)=O)C2=O
[1]
  Potency: inconclusive [inhibitor, single point]
[2]
  Potency: active: 0.262 µM
[3]
  Potency: active: 3.72 µM

## C[C@H](Cc1ccccc1)Nc1ncnc2c1ncn2[C@@H]1O[C@H](CO)[C@@H](O)[C@H]1O
[1]
  Potency: inactive

## CCN(CC)c1ccc(C(=C2C=CC(=[N+](CC)CC)C=C2)c2cc(S(=O)(=O)O)ccc2S(=O)(=O)[O-])cc1
[1]
  Potency: inactive
[2]
  Potency: inconclusive [cytotoxic, single point]
[3]
  Potency: inconclusive [cytotoxic, single point]
[4]
  Potency: inconclusive [cytotoxic, partial curve]

## O[C@@H](COc1cccc2ncccc12)CN1CCN(C2c3ccccc3[C@@H]3[C@H](c4ccccc42)C3(F)F)CC1 (some centres not stated)
[1]
  Potency: inconclusive [inhibitor, single point]

## O=C(O)Cc1cccc(-c2cc(CCCCCCc3ccc(O[C@H]4O[C@H](CO)[C@@H](O)[C@H](O)[C@@H]4O)c(-c4cccc(CC(=O)O)c4)c3)ccc2O[C@H]2O[C@H](CO)[C@@H](O)[C@H](O)[C@@H]2O)c1
[1]
  activity change, negative = inhibition: inactive: -8.2% [at 0.593 µM]

## CCN(CC)CCOc1ccc(/C(=C(\Cl)c2ccccc2)c2ccccc2)cc1
[1]
  Potency: inconclusive [inhibitor, single point]
[2]
  Potency: inconclusive [cytotoxic, single point]
[3]
  Potency: inconclusive [cytotoxic, single point]

## CCCNS(=O)(=O)Nc1ncnc(OCCOc2ncc(Br)cn2)c1-c1ccc(Br)cc1
[1]
  Potency: inconclusive [inhibitor, single point]

## CCCCC(CC)COC(=O)C(C#N)=C(c1ccccc1)c1ccccc1 (configuration not stated)
[1]
  Potency: active: 23.5 µM
[2]
  Potency: inactive
[3]
  Potency: inconclusive [cytotoxic, full curve]
[4]
  Potency: inactive

## Nc1nccc(Oc2ccc(NC(=O)c3c[nH]cc(-c4ccc(F)cc4)c3=O)cc2F)c1Cl
[1]
  Potency: inactive
[2]
  Potency: inconclusive [cytotoxic, partial curve]

## O=c1c(-c2ccc(O)cc2)coc2cc(O[C@@H]3O[C@H](CO)[C@H](O)[C@H](O)[C@H]3O)ccc12
[1]
  Potency: inactive

## CCCCC1C(=O)N(c2ccccc2)N(c2ccc(O)cc2)C1=O (configuration not stated)
[1]
  Potency: active: 3.98 µM
[2]
  Potency: inconclusive [cytotoxic, single point]

## CC1=C(CO)C(=O)O[C@@H]([C@@H](C)[C@H]2CC[C@H]3[C@@H]4C[C@H]5O[C@]56[C@@H](O)C=CC(=O)[C@]6(C)[C@@H]4CC[C@]23C)C1
[1]
  Potency: active: 1.48 µM
[2]
  Potency: active: 2.34 µM
[3]
  Potency: active: 0.743 µM

## CCNC(=O)c1noc(-c2cc(C(C)C)c(O)cc2O)c1-c1ccc(CN2CCOCC2)cc1
[1]
  Potency: inconclusive [inhibitor, single point]
[2]
  Potency: active: 0.165 µM

## Cc1ccc(O)c(-n2nc3ccccc3n2)c1
[1]
  Potency: inconclusive [inhibitor, single point]

## Cc1nc(-c2ccc(OCC(C)C)c(C#N)c2)sc1C(=O)O
[1]
  Potency: inactive

## CCCCCCCCCCCCOCCO
[1]
  Potency: inactive

## Cc1ccc(C(=O)c2ccc(CC(=O)O)n2C)cc1
[1]
  Potency: inactive

## Cc1ccc(C(=O)Nc2cccc(C(F)(F)F)c2)cc1Nc1nc(-c2cccnc2)nc2c1cnn2C
[1]
  Potency: active: 14.8 µM

## COc1ncc(-c2ccc3nccc(-c4ccnnc4)c3c2)cc1NS(=O)(=O)c1ccc(F)cc1F
[1]
  Potency: active: 0.0418 µM

## CC(C)(C)COc1ccc(-n2cc(C(=O)O)cn2)cc1C#N
[1]
  Potency: inactive

## Clc1ccc(C(Cn2ccnc2)OCc2ccc(Sc3ccccc3)cc2)c(Cl)c1 (configuration not stated)
[1]
  Potency: inconclusive [inhibitor, single point]
[2]
  Potency: inactive
[3]
  Potency: inconclusive [cytotoxic, single point]

## COc1ccccc1OCC(O)CN1CCN(CC(=O)Nc2c(C)cccc2C)CC1 (configuration not stated)
[1]
  Potency: inconclusive [inhibitor, single point]

## O=C1C(Cl)=C(NCCN2CCOCC2)C(=O)c2ncccc21
[1]
  Potency: active: 9.35 µM
[2]
  Potency: inconclusive [cytotoxic, single point]
[3]
  Potency: active: 11.8 µM
